# Results: the supplement of paper PMC9135407
# Several values for one entry are separate records, joined by “and”; a condition that tells them apart may be missing. Identical values can stand only once. Counter-ions that a name gives are not always drawn. The whole screen tested about 5,800 compounds, of which about 620 (11%) showed activity.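 How the source made its calls: active = score above a cut-off or among the top three wells of a plate; in these data no inactive exceeds 0.85.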 The entries are a selection whose mix differs from that of the whole data set.
# System: primary human hepatic stellate cells (donor 1)
# Assay: scaled lipid accumulation score (0 = DMSO-like, 1 = nortriptyline-like); higher = stronger HSC inactivation (lipid re-accumulation), active = hit call of the paper
# Settings: 48 h
# [1] = library stock concentration: 3.33 mM
# [2] = library stock concentration: 10 mM
# [3] = library stock concentration: 6.3 mM
# [4] = library stock concentration: 1 mM
smiles,measurement,setting,value
COc1cc2c(Nc3ccc(NC(=O)c4ccccc4)cc3)ncnc2cc1OCCCN1CCOCC1,scaled lipid accumulation score,[1],active: 1.06
same,scaled lipid accumulation score,[2],active: 1.11
C=CCc1ccc(O)c(OC)c1 [Eugenol],scaled lipid accumulation score,[2],inactive: ≤ 0
same,scaled lipid accumulation score,library stock concentration: 12.2 mM,inactive: ≤ -0.001
C[C@H](NCc1ccc(OCc2cccc(F)c2)cc1)C(N)=O [Safinamide Mesylate],scaled lipid accumulation score,[1],inactive: ≤ 0
same,scaled lipid accumulation score,[2],inactive: ≤ 0
CN(C)CC/C=C1/c2ccccc2COc2ccccc21.Cl [Doxepin hydrochloride],scaled lipid accumulation score,[3],active: 1.34
CCn1cc(C(=O)O)c(=O)c2cc(F)c(N3CCNCC3)nc21 [Enoxacin],scaled lipid accumulation score,[1],inactive: ≤ 0
same,scaled lipid accumulation score,library stock concentration: 6.2 mM,inactive: ≤ 0
same,scaled lipid accumulation score,[2],inactive: ≤ 0 and inactive: 0.209
"CC1(C)CCC=[N+]1[O-] [5,5-Dimethyl-1-pyrroline-N-oxide]",scaled lipid accumulation score,[2],inactive: ≤ -0.07
Cl.Cl.O=C(NCCCN1CCC2(CC1)OCc1ccccc12)[C@H]1CCCN1Cc1ccccc1,scaled lipid accumulation score,[2],active: 0.974
CC1(C)CCC(NC(=O)[C@@H](N)CCC(=O)O)CC1,scaled lipid accumulation score,[2],inactive: ≤ -0.001
O=C(O)C1CCNCC1 [Isonipecotic acid],scaled lipid accumulation score,[2],inactive: ≤ -0.055
CN(C)c1cnccn1,scaled lipid accumulation score,[2],inactive: ≤ 0
CCCCCCCC/C=C\C/C=C\C/C=C\CCCC(=O)NCCO [Mead ethanolamide],scaled lipid accumulation score,[4],inactive: 0.017
"CCCCCCCC/C=C\C/C=C\C/C=C\CCCC(=O)NCCO [5(Z),8(Z),11(Z)-Eicosatrienoic Acid Ethanolamide]",scaled lipid accumulation score,[4],inactive: 0.015
C=C(C)[C@@H]1CC[C@]2(C(=O)O)CC[C@]3(C)[C@H](CC[C@@H]4[C@@]5(C)CC[C@H](O)C(C)(C)[C@@H]5CC[C@]43C)[C@@H]12 [Betulinic acid],scaled lipid accumulation score,,inactive: 0.036
same,scaled lipid accumulation score,[1],inactive: ≤ 0
same,scaled lipid accumulation score,[2],inactive: ≤ -0.001
same,scaled lipid accumulation score,library stock concentration: 10.9 mM,inactive: 0.148
CN=c1nc(-c2ccccc2)n(-c2ccccc2)s1,scaled lipid accumulation score,[2],inactive: 0.624 and inactive: 0.215
C1N2CN3CN1CN(C2)C3 [Methenamine],scaled lipid accumulation score,[1],inactive: ≤ 0
same,scaled lipid accumulation score,[2],inactive: ≤ -0.001 and inactive: ≤ 0
same,scaled lipid accumulation score,library stock concentration: 14.3 mM,inactive: ≤ 0
O=C(O)C1=C[C@@H](O)[C@@H](O)[C@H](O)C1 [Shikimic Acid],scaled lipid accumulation score,[1],inactive: ≤ 0
same,scaled lipid accumulation score,[2],inactive: ≤ 0
CCN(CC)CCOc1ccc(C(=C(Cl)c2ccccc2)c2ccccc2)cc1.O=C(O)CC(O)(CC(=O)O)C(=O)O [Clomifene citrate],scaled lipid accumulation score,[2],active: 1.12
C[Se]CC[C@H](N)C(=O)O,scaled lipid accumulation score,[2],inactive: ≤ 0
O=C1NCCN1c1ncc([N+](=O)[O-])s1 [Niridazole],scaled lipid accumulation score,,inactive: ≤ 0
CCCCCN(C)CCC(O)(P(=O)(O)O)P(=O)(O)O [Ibandronate],scaled lipid accumulation score,[3],inactive: ≤ 0
CCCCCN(C)CCC(O)(P(=O)(O)O)P(=O)(O)O [Ibandronate sodium],scaled lipid accumulation score,[2],inactive: ≤ 0
CC(C)(C)C(=O)OCOC(=O)[C@@H]1N2C(=O)[C@@H](/N=C/N3CCCCCC3)[C@H]2SC1(C)C [Pivmecillinam hydrochloride],scaled lipid accumulation score,,inactive: ≤ 0
O=C(c1ccc(F)cc1)C1CCN(CCCCc2ccccc2)CC1 [4-(4-Fluorobenzoyl)-1-(4-phenylbutyl)-piperidine oxalate],scaled lipid accumulation score,[2],inactive: 0.378
CC(C)OC(=O)C(C(=O)OC(C)C)=C1SC=CS1 [Malotilate],scaled lipid accumulation score,[1],inactive: ≤ 0
same,scaled lipid accumulation score,[2],inactive: ≤ 0
Cc1ncc([N+](=O)[O-])n1C,scaled lipid accumulation score,[2],inactive: ≤ 0
CNc1ncnc2c1ncn2[C@@H]1O[C@H](CO)[C@@H](O)[C@H]1O [N6-methyladenosine (m6A)],scaled lipid accumulation score,[1],inactive: ≤ 0
same,scaled lipid accumulation score,[2],inactive: ≤ -0.001
CNc1ncnc2c1ncn2[C@@H]1O[C@H](CO)[C@@H](O)[C@H]1O [N6-Methyladenosine],scaled lipid accumulation score,[2],inactive: ≤ -0.021
CNc1ncnc2c1ncn2[C@@H]1O[C@H](CO)[C@@H](O)[C@H]1O [N6-methyladenosine],scaled lipid accumulation score,,inactive: ≤ 0
"OCC(O)CN1CCN(c2ccccc2)CC1 (racemic) [Dropropizine (R,S)]",scaled lipid accumulation score,,inactive: ≤ 0
N[C@@H](CC(=O)O)C(=O)O [L-Aspartic acid],scaled lipid accumulation score,[2],inactive: ≤ 0
CCCCN1C[C@H](O)[C@@H](O)[C@H](O)[C@H]1CO [Miglustat],scaled lipid accumulation score,library stock concentration: 9.1 mM,inactive: ≤ 0
C[C@@H](O)[C@H]1C(=O)N2C(C(=O)O)=C(SCCNC=N)C[C@H]12 [Imipenem],scaled lipid accumulation score,,inactive: ≤ 0
same,scaled lipid accumulation score,library stock concentration: 6.7 mM,inactive: ≤ 0
C[C@@H](O)[C@H]1C(=O)N2C(C(=O)O)=C(SCCNC=N)C[C@H]12 [Imipenem monohydrate],scaled lipid accumulation score,[2],inactive: 0.097
c1ccc2c(c1)CCCC2C1=NCCN1 (centres undefined) [Tetrahydrozoline hydrochloride],scaled lipid accumulation score,,inactive: ≤ 0
same,scaled lipid accumulation score,[2],inactive: ≤ 0
c1ccc2c(c1)CCCC2C1=NCCN1 (centres undefined) [Tetrahydrozoline HCl],scaled lipid accumulation score,[1],inactive: ≤ 0
same,scaled lipid accumulation score,[2],inactive: ≤ -0.001
c1ccc2c(c1)CCCC2C1=NCCN1 (centres undefined) [Tyzine],scaled lipid accumulation score,[2],inactive: ≤ 0
O=C(O)Cn1c(C(=O)Nc2nc(-c3ccccc3Cl)cs2)cc2ccccc21,scaled lipid accumulation score,[2],inactive: ≤ -0.001
O=C(CN=C(c1ccccc1)c1ccccc1)OCc1ccccc1 [N-(diphenylmethylene) Glycine benzyl ester],scaled lipid accumulation score,[4],inactive: 0.004
Cc1cccc(C)c1NC(=O)c1ccccc1C(=O)O,scaled lipid accumulation score,[2],inactive: ≤ 0
O=C(COc1cccc2c(=O)[nH]ccc12)c1ccccc1,scaled lipid accumulation score,[1],inactive: ≤ -0.009
same,scaled lipid accumulation score,[2],inactive: 0.218 and inactive: 0.022
CCNC(=O)[C@H]1O[C@@H](n2cnc3c(N)nc(NCCc4ccc(CCC(=O)O)cc4)nc32)[C@H](O)[C@@H]1O,scaled lipid accumulation score,[2],inactive: ≤ -0.07
CC(C)NCC(O)COc1cccc2ccccc12 (racemic) [Propranolol hydrochloride (+/-)],scaled lipid accumulation score,library stock concentration: 6.8 mM,inactive: 0.363
same,scaled lipid accumulation score,[2],inactive: 0.457
C[C@](N)(Cc1ccc(O)cc1)C(=O)O [L-alpha-Methyl-p-tyrosine],scaled lipid accumulation score,[2],inactive: 0.166
CC(=O)N[C@@H](CC(C)C)C(=O)N[C@@H](CC(C)C)C(=O)N[C@H](C=O)CCCNC(=N)N [Leupeptin Hemisulfate],scaled lipid accumulation score,[1],inactive: ≤ -0.009
same,scaled lipid accumulation score,[2],inactive: ≤ 0
CS(=O)(=O)c1ccc([C@@H](O)[C@@H](CF)NC(=O)C(Cl)Cl)cc1 [Florfenicol],scaled lipid accumulation score,,inactive: ≤ 0
same,scaled lipid accumulation score,[1],inactive: ≤ 0
same,scaled lipid accumulation score,[2],inactive: ≤ -0.001
FCOC(C(F)(F)F)C(F)(F)F,scaled lipid accumulation score,[2],inactive: ≤ 0
CCCCCCCCCCCC(=O)c1nc2ncccc2o1,scaled lipid accumulation score,[4],inactive: ≤ 0
CCCCCCCCCCCCCCCC(=O)O[C@H](CC(=O)O)C[N+](C)(C)C,scaled lipid accumulation score,[2],inactive: 0.027
CN1CCN(c2ccc3nc(-c4c(N)c5c(F)cccc5[nH]c4=O)[nH]c3c2)CC1,scaled lipid accumulation score,library stock concentration: 400 uM,active: 0.945
same,scaled lipid accumulation score,library stock concentration: 2 mM,active: 1.11
same,scaled lipid accumulation score,[2],active: 1.08
C[N+](C)(C)CCOP(=O)(O)OP(=O)([O-])OC[C@H]1O[C@@H](n2ccc(N)nc2=O)[C@H](O)[C@@H]1O [Citicoline],scaled lipid accumulation score,[2],inactive: ≤ -0.027
C[N+](C)(C)CCOP(=O)(O)OP(=O)([O-])OC[C@H]1O[C@@H](n2ccc(N)nc2=O)[C@H](O)[C@@H]1O [Cytidine 5'-diphosphocholine sodium salt hydrate],scaled lipid accumulation score,[2],inactive: ≤ -0.07
CCC=CCC=CCC=CCC=CCCCCC(=O)OCC [Stearidonic Acid ethyl ester],scaled lipid accumulation score,[4],inactive: ≤ 0
Nc1ccc(S(=O)(=O)NC(=O)c2ccccc2)cc1 [Sulfabenzamide],scaled lipid accumulation score,,inactive: ≤ 0
same,scaled lipid accumulation score,library stock concentration: 7.2 mM,inactive: ≤ 0
same,scaled lipid accumulation score,[2],inactive: 0.019
CC(C)c1nc(N(C)S(C)(=O)=O)nc(-c2ccc(F)cc2)c1/C=C/[C@@H](O)C[C@@H](O)CC(=O)O [Rosuvastatin],scaled lipid accumulation score,[2],inactive: ≤ -0.027
CC(C)c1nc(N(C)S(C)(=O)=O)nc(-c2ccc(F)cc2)c1/C=C/[C@@H](O)C[C@@H](O)CC(=O)O [Rosuvastatin Calcium],scaled lipid accumulation score,[1],inactive: ≤ 0
same,scaled lipid accumulation score,[2],inactive: ≤ 0
C=C(CC)C(=O)c1ccc(OCC(=O)O)c(Cl)c1Cl [Ethacrynic acid],scaled lipid accumulation score,,inactive: 0.135
same,scaled lipid accumulation score,library stock concentration: 6.6 mM,inactive: ≤ -0.006 and inactive: ≤ -0.001
same,scaled lipid accumulation score,[2],inactive: ≤ 0
CCCCCOc1ccc(-c2ccc(-c3ccc(C(=O)N[C@H]4C[C@@H](O)[C@@H](O)NC(=O)[C@@H]5[C@@H](O)[C@@H](C)CN5C(=O)[C@H]([C@@H](C)O)NC(=O)[C@H]([C@H](O)[C@@H](O)c5ccc(O)cc5)NC(=O)[C@@H]5C[C@@H](O)CN5C(=O)[C@H]([C@@H](C)O)NC4=O)cc3)cc2)cc1,scaled lipid accumulation score,[1],inactive: ≤ 0
same,scaled lipid accumulation score,[2],inactive: 0.462
c1cncc(CN2CCC(n3ncc4c(N5CCOCC5)nc(-c5ccc6[nH]ccc6c5)nc43)CC2)c1,scaled lipid accumulation score,[1],active: 1.19
same,scaled lipid accumulation score,[2],active: 1.19
Nc1ccc2cc3ccc(N)cc3nc2c1,scaled lipid accumulation score,[2],inactive: 0.024
CCN=C1N[C@@H]2[C@@H](O)[C@H](O)[C@@H](CO)O[C@@H]2S1 [Thiamet G],scaled lipid accumulation score,[1],inactive: 0.185
same,scaled lipid accumulation score,[2],inactive: ≤ 0
CC(C)C[C@@H]1NC(=O)[C@H](CCCN)NC(=O)[C@H](C(C)C)NC(=O)[C@H](Cc2ccc(O)cc2)N[C@@H](CCC(=O)O)C(=O)N[C@@H](CC(N)=O)C(=O)[C@@H](Cc2ccccc2)NC(=O)[C@H](Cc2ccccc2)NC(=O)[C@@H]2CCCN2C(=O)[C@@H](Cc2ccccc2)NC1=O [Tyrothricin],scaled lipid accumulation score,library stock concentration: 1.6 mM,inactive: ≤ 0
same,scaled lipid accumulation score,[2],inactive: ≤ 0
Nc1ncnc2c1c(I)cn2[C@@H]1O[C@H](CO)[C@@H](O)[C@H]1O [5-Iodotubercidin],scaled lipid accumulation score,[1],inactive: ≤ 0
